The text below walks through data of PubChem BioAssay (NCI).

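Each compound was tested at five concentrations against cells in 96-well plates for 48 hours. GI50: concentration for 50% inhibition of growth. TGI marks complete inhibition of growth.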 Where only a bound is given, the exact number is not on record here.

The experiment deals with NCI-H322M lung. The experiment in a line: NCI tumour cell line growth inhibition, 48 h.
On to `Cc1cc(NCCCN(C)C)c2ccc3c(ccc4c(NCCCN(C)C)cc(C)nc43)c2n1`, for which the GI50 was 0.204 µM and the TGI was 0.566 µM.

`O=[N+]([O-])c1ccc2sc(C=Nc3cnccn3)cc2c1`: the TGI was more than 100 µM.

`O=[N+]([O-])c1ccc(-n2nnc(C3=NCCN3)c2-c2ccccc2)cc1`: the TGI was more than 100 µM.

Turning to `O=C1CCCCC/C1=C\c1ccc([N+](=O)[O-])cc1`, the TGI was more than 100 µM.

Consider `COc1ccc(C2=Nc3cc(C)c(C)cc3NC(c3ccccc3)C2)cc1` (stereo not given), for which the TGI is more than 100 µM.

Take `CCCCCCCCCCCCCCCC(=O)OCC1OC(n2cc(F)c(=O)[nH]c2=O)C(N)C(O)C1O` (stereo not given): the TGI was 43.6 µM.

Consider `C[C@@H]1[C@H](C)N1CC(O)Cn1ccnc1[N+](=O)[O-]` (stereo not given in full), for which the TGI was more than 100 µM.

The compound `CC(C)CCCC(C)[C@H]1CCC2[C@@H]3CCC4Cc5nc6c(nc5C[C@]4(C)C3CC[C@@]21C)CC1CC[C@@H]2C(CC[C@@]3(C)C2CC[C@@H]3C(C)CCCC(C)C)[C@@]1(C)C6` (stereo not given in full) gave a TGI of more than 100 µM.

As to `COc1c(O)c2c3c(cc(C)cc3c1C(C)C)OC2`, the TGI is more than 100 µM.

In turn, `Cc1ccc2c(c1)-c1c3c(nn1-c1ccccc1)-c1ccccc1SC3O2` (stereo not given) returned a TGI of more than 100 µM.

`N#C/C(=C\c1ccsc1)c1nc2ccccc2o1`: the GI50 is 79.9 µM and the TGI was more than 100 µM.

In turn, `O=S(=O)(/C=C/c1ccc(F)cc1)Cc1ccc(CS(=O)(=O)/C=C/c2ccc(F)cc2)cc1` came in with a TGI of more than 100 µM.

In turn, `COc1cc2ccc(=O)oc2cc1O` showed a TGI of more than 625 µM.

With `CCCC(=O)NC(Nc1ccc(S(=O)(=O)Nc2cc(C)on2)cc1)(C(=O)OCC)C(F)(F)F` (stereo not given), the TGI was more than 100 µM.

As for `Cc1cc2c(cc1Cl)SC1=NN(C)C(C)N1S2(=O)=O` (stereo not given), the GI50 was more than 100 µM and the TGI was more than 100 µM.

In the case of `COc1cccc(-c2c[nH]c3c(N/N=C/c4ccncc4)ncnc23)c1`, the GI50 was 5.51 µM and the TGI was more than 25 µM.

For `Cc1c(Cl)cccc1C(=O)Nc1nc2c(s1)CN(C(=O)c1ccc(C(F)(F)F)cc1)CC2`, the GI50 was 0.272 µM and the TGI was more than 50 µM.

In the case of `Cc1cc(-c2nc3cc(F)ccc3s2)ccc1NC(=O)[C@@H](N)CCCCN`, the TGI turned out to be 13.8 µM.

Turning to `Cc1cccc(Nc2nn3c(=O)c4c5c(sc4nc3s2)CCCC5)c1`, the TGI was more than 100 µM.

Regarding `CSC1=C(N)C(=O)c2[nH]cc(CO)c2C1=N`, the GI50 is 0.173 µM and the TGI was 0.313 µM.

Take `COc1ccc(CC(N)c2ccc(OC)cc2)cc1` (stereo not given): the TGI was more than 100 µM.

For the compound `Cc1ccc([S@](=O)c2occc2C=O)cc1`, the TGI was 29.5 µM.

The compound `CCCCCCCC/C=C\CCCCCCC/C=C1\C[C@](/C=C/C(=O)OC)(CO)OC1=O` displayed a TGI of 28.1 µM.

`C=C1C(O)C2C(=C(CC)C13CC3)C(=O)C(C)(C)C2OC` (stereo not given): the GI50 was more than 100 µM and the TGI is more than 100 µM.

Compound `Cc1ccc2c(=O)cc(-c3ccc(Cl)s3)[nH]c2n1` came in with a TGI of more than 100 µM.

The compound `COc1c(O)c(C=O)c2c(O)c(-c3c(C)cc4c(C(C)C)c(OC)c(O)c(C=O)c4c3O)c(C)cc2c1C(C)C` showed a TGI of 17.4 µM.

For the compound `C[C@H](NC(=O)C(Cc1ccccc1)(Cc1ccc(O)cn1)NC(=O)c1ccccc1)c1ccccc1` (stereo not given in full), the TGI stood at 38.4 µM.

`CO/N=C1\CC(NC(=O)CNC(=O)OC(C)(C)C)c2ccsc21` (stereo not given): the TGI is more than 100 µM.

Turning to `Cn1ncnc1[C@H]1c2n[nH]c(=O)c3cc(F)cc(c23)N[C@@H]1c1ccc(F)cc1`, the GI50 is more than 100 µM and the TGI was more than 100 µM.

With `O=C1C[C@@H](C(=O)OCc2ccccc2)NC(=O)C[C@@H](C(=O)OCc2ccccc2)NC(=O)C[C@@H](C(=O)OCc2ccccc2)N1`, the TGI was more than 100 µM.

Regarding `C=CCN=C(N/N=C/c1ccc([N+](=O)[O-])o1)NS(=O)(=O)c1cc(C(=O)Nc2ccc(Cl)cc2)c(Cl)cc1SC`, the GI50 is more than 100 µM and the TGI was more than 100 µM.

Regarding `CCOC(C[C@H](O[Si](C)(C)C(C)(C)C)[C@H]1COC(=S)S1)OCC`, the TGI was more than 100 µM.

Consider `C#CC#CC#CC#CC#CC#CC#CC#CCC1OCC(COC(=O)O[C@@H](C(=O)O[C@H]2C[C@@]3(O)[C@@H](OC(=O)c4ccccc4)[C@@H]4[C@]5(OC(C)=O)CO[C@@H]5C[C@H](O)[C@@]4(C)C(=O)[C@H](OC(C)=O)C(=C2C)C3(C)C)[C@@H](NC(=O)c2ccccc2)c2ccccc2)O1` (stereo not given in full), for which the GI50 is 0.307 µM and the TGI was more than 33.3 µM.

For the compound `OC1(C23CC4CC(CC(C4)C2)C3)CSCC1(O)C12CC3CC(CC(C3)C1)C2` (stereo not given), the TGI was more than 100 µM.

`NCCCN(CCCN(C(=O)Nc1ccccc1)c1ccccc1)C(=O)Nc1ccccc1`: the TGI was more than 100 µM.

Take `CN(C)CCN1C(=O)c2c(c3c4ccccc4n4c3c3c2c2ccccc2n3C2CC(O)C(O)C4(C)O2)C1=O` (stereo not given): the GI50 is 1.97 µM and the TGI was 11.6 µM.

Take `O=C(Nc1ccc(Br)cc1F)c1cc(I)ccc1O`: the GI50 is 2.51 µM and the TGI was more than 100 µM.

Consider `COc1ccc(CCN2CC=Cn3c2nc2ccccc2c3=O)cc1`, for which the GI50 was 0.0633 µM and the TGI is more than 100 µM.

For `CN(C)c1nc(N)nc(CS)n1`, the TGI was more than 100 µM.

Compound `COc1cc2c[n+](C)c3c4cc(OC)c(OC(C)C)cc4ccc3c2cc1OC` showed a TGI of more than 100 µM.

`N/N=C(/C(=O)Nc1cccc(Cl)c1)C(C(=O)c1ccc(O)cc1O)C1OC(=O)c2ccccc21` (stereo not given) had a TGI of more than 100 µM.

The compound `COc1ccc(N2C(=O)CC(=O)N(C(=O)COc3ccc(OCC(=O)N4C(=O)CC(=O)N(c5ccc(OC)cc5)C4=S)cc3)C2=S)cc1` showed a TGI of 92.1 µM.

Take `CC1(C)CC(O)C(C)(C)[C@@H](O)C1` (stereo not given in full): the TGI was more than 100 µM.

As to `CC(=O)OCC1OC(SC2=N/C(=C\c3ccc(Br)s3)C(=O)N2CN2CCOCC2)C(OC(C)=O)C(OC(C)=O)C1OC(C)=O` (stereo not given), the TGI stood at 35.2 µM.

In turn, `CCC1(c2ccccc2)Sc2ccccc2-n2cccc2C1=O` (stereo not given) yielded a TGI of more than 10 µM.

The compound `COC(=O)C1CCC(=S)N1C(=O)c1ccccc1` (stereo not given) showed a TGI of more than 100 µM.

In the case of `C[N+](C)(C)c1ccc(C(N)C(=O)O)cc1` (stereo not given), the TGI is more than 100 µM.

As to `COc1cc2nc(N3CCCC3)nc(NCc3ccccc3)c2cc1OC`, the GI50 was 5.11 µM and the TGI was 18 µM.

In turn, `CCNC(=S)N=Nc1c(O)[nH]c2ccc([N+](=O)[O-])cc12` showed a TGI of more than 100 µM.

In the case of `C=C(C(N)=O)c1ccc([N+](=O)[O-])o1`, the TGI was 79.7 µM.

Take `O=C1C(Nc2ccc(Cl)cc2)=C(I)C(=O)c2ncccc21`: the GI50 was 3.08 µM and the TGI turned out to be 13.1 µM.

With `CC1CCCC2(CC[N+](C)(CCC[N+](C)(C)C)CC2)C1` (stereo not given), the TGI is more than 100 µM.

Consider `COC1CC(O[C@H]2CC[C@@]3(C)[C@H](CC[C@@H]4[C@@H]3CC[C@]3(C)[C@@H](C5=CC(=O)OC5)[C@@H](OC(C)=O)C[C@]43O)C2)OC(C)C1O` (stereo not given in full), for which the GI50 was less than 0.01 µM and the TGI was less than 0.01 µM.

`COc1cccc(N2C(=O)C3c4[nH]c5ccccc5c4C4CCCC4C3C2=O)c1` (stereo not given) returned a TGI of more than 10 µM.

On to `Cc1cc2c(C(C)C)c(O)c(O)cc2c(O)c1-c1c(C)cc2c(C(C)C)c(O)c(O)cc2c1O`, for which the GI50 was 22.9 µM and the TGI was 61.7 µM.

`O=C1CCCCCCCCCCC1CN1CCCC1` (stereo not given) came in with a TGI of more than 100 µM.

On to `NS(=O)(=O)c1ccc(/C=C/c2ccc(F)cc2)cc1`, for which the TGI is more than 100 µM.

The compound `C/C(=N/NC(=S)N1CCCCC1)c1ccccc1O` returned a TGI of more than 31.6 µM.
